According to the supplement of paper PMC11417369:
This is one part of the list.

What follows are sequences tested on PF3D7_0420300 AP2 domain 1 (GST-tagged) (assay: gcPBM binding intensity (ln(normalized median fluorescence intensity)); higher = stronger DNA binding).
Summary of the method: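 Probes on an Agilent 4 × 180k array were primer-extended, double-stranded and 36 bp long, taken from intergenic genomic regions, with negative controls added. GST-tagged P. falciparum DNA-binding domains from E. coli, about 25 μg on average, were applied to the array for 1 h in 1× PBS containing 1% milk, 0.2 mg/ml BSA, 0.5% salmon testes DNA and 0.03% Triton X-100. Binding intensity, obtained after Alexa488 anti-GST antibody detection and a 488 nm scan, is the highest Masliner-normalised natural-log median intensity across replicate spots of either probe orientation.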

| Sequence | gcPBM binding intensity (ln) |
| --- | --- |
| TTTTTTTTTTCTACAAGTACATATTTTCATTTAACA [XGTACX_site6621] | 9.14 |
| AAATTAAAAAAAAATAAATAAAAAAAAAAAAAAAAT [CACACA_negctrl_site1611] | 9.35 |
| AAAAAAAAAAAAAAATGTACATATATATATTATAAA [XGTACX_site518] | 9.17 |
| AAACGTATGTTATTTACACACCCTTCCACTTTTATA [CACACA_site3337] | 9.54 |
| TATAAAATAAGACATGCATGTTATACATATATATTT [TGCATGCA_site156] | 9.29 |
| CATTATTATTTTATAACACACACATATATATTATAT [CACACA_site8405] | 9.59 |
| ATGTTTTTTATTCTTCGTACGTATGAACGATAGTGT [XGTACX_site4225] | 9.28 |
| AAAAGATTTATACATACACACATATTATAGTCACAT [CACACA_site7701] | 9.77 |
| GGAAACCTTTTTTTTACACACAATATATTAATACTT [CACACA_site1403] | 9.69 |
| TTTGTTTTAAATATTATACACACGTAAAAGTAGAAT [CACACA_site214] | 9.38 |
| CAAGAAAATGGACACACACACATATATATATATATA [CACACA_site6010] | 9.68 |
| CAAATTTAAAAAAAATCACACACAGAAAAAAAAAAA [CACACA_site8728] | 9.66 |
| TACACCCTATTTTTATGTACTTATTTGATTTACACA [XGTACX_site8172] | 9.65 |
| ATATAAATACGGTGTGCACACACATAATATATATAT [CACACA_site2271] | 9.96 |
| TGTATACGCATATGTACACACATATATATGTATATG [CACACA_site3087] | 9.51 |
| GTGTAATTATCAGCATAAATATGGTACATACATAAA [CACACA_negctrl_site323] | 9.38 |
| TTTTTTTTTTTGTTCACACATATACTTTTATTTTGG [CACACA_site4250] | 9.46 |
| AATGCTATCATTAATGCACACATTTAAACTTAATAT [CACACA_site5878] | 9.36 |
| TATAACGCTTGCAGCTGTACAAAAATAATCAAACTG [XGTACX_site2464] | 9.04 |
| TTAAATGAAAAAATATGTACGTATAATAAGAAATAT [XGTACX_site6619] | 9.57 |
| GTATGAGTCGTAGAGTGTACTCTGGAGAAAACTACA [XGTACX_site4942] | 9.15 |
| TATTTTTTCTTAAACACACACATATATATATAGAAT [CACACA_site2836] | 9.55 |
| TTTTTTCTTAGTTATACATGCAAAATAAATAAATAA [TGCATGCA_site410] | 8.82 |

| Sequence | gcPBM binding intensity (ln) |
| --- | --- |
| ATTTATATATAATTTTGTACGAAAAAAATAAGGTAT [XGTACX_site3578] | 9.31 |
| TATATATTTATTAAATGTACATAACAAAAATGGTAT [XGTACX_site3577] | 9.32 |
| AAATAAAGTAAAATATGTACATAAATTAAAACACAT [XGTACX_site8539] | 9.83 |
| TGCATACATAAATGTATATATTAATATATATCATAT [GTGCAC_negctrl_site252] | 9.2 |
| AAAAAAAACGAACACACACACATACAAAATCTATAT [CACACA_site6795] | 10.1 |
| TTAAAAGAATATAATGCACACATTATTTTATTTTAT [CACACA_site3772] | 9.2 |
| AATACATAATAACATGTACACACATTCTTCTATAAA [CACACA_site9344] | 9.51 |
| TATACGAAATTGTGCACACATATATTTATGTATGTA [CACACA_site1509] | 9.42 |
| TACCCACGTATATATATACACACTAATATACACCCA [CACACA_site9381] | 9.52 |
| ATTTACATTCACTTATGTACTTATATAATTTTATTT [XGTACX_site8150] | 9.54 |
| AATGTATAATTATAATGTACAAATAATATATAATAT [XGTACX_site5407] | 9.43 |
| TAACTCCACAAATAATGTACATATATCACTATATTT [XGTACX_site4911] | 9.22 |
| TACATATGAAAATACACACATACATACATATATATA [CACACA_site1673] | 9.77 |
| TATATAATATATATTTTATATTTGTAATAATTTTTT [GTGCAC_negctrl_site497] | 9.02 |
| TATATTAAACATATATGTACATATTTTTTCTGAACA [XGTACX_site5390] | 9.08 |
| TATTGTTTTTTTGATTTTTTTTTTTTTTTTAATGAA [CACACA_negctrl_site824] | 9.3 |
| AATATCAATGATGTTACATGCAAGAGAATCCACAAA [TGCATGCA_site678] | 9.24 |
| ACCAAATCATATATAGCACACAAATTCTTTATTATT [CACACA_site8911] | 9.4 |
| AATATTTTCTGTAATACTTCTTTTCAATTTATTTCG [CACACA_negctrl_site1390] | 9.47 |
| ACGTAAAATTATTATTGTACATGTAAATAATTTGGA [XGTACX_site8154] | 9.23 |
| ATAGAAAGTGACAATTGTACATACATATTATATATA [XGTACX_site4390] | 9.34 |
| TTCTTGGAATACAAGTGTACTTTATTATTATTATTA [XGTACX_site5997] | 9.25 |
| AAAAAAAAAAAAAAAAAAAAATTTCAATTATATTGA [GTGCAC_negctrl_site642] | 8.91 |

| Sequence | gcPBM binding intensity (ln) |
| --- | --- |
| TTTTTTTTTGCCTACTGTACTATTTTTGAGCTCACC [XGTACX_site7967] | 9.35 |
| AAAATTATAATATATACACACATATATATATTAAAT [CACACA_site473] | 9.49 |
| CAAAATATAGATGACACACACAAAAAAAGTATATTA [CACACA_site6848] | 9.92 |
| AAGCTTCCTTAATATACACACATATCTGAGTATATT [CACACA_site5939] | 9.57 |
| AGATAAAAAAAGTACACACACACATATATATATATA [CACACA_site3072] | 9.82 |
| CATTTACCCTTATTAACACACAAAATATAATACGCT [CACACA_site2565] | 9.56 |
| TTTTTTTTTTTTTGGTGTACCATAGGTAAAATGATT [XGTACX_site8020] | 8.91 |
| ATTTATGGAAAAAGAACACACAATCAAACAAAAATA [CACACA_site3707] | 9.71 |
| ATATAAATGAATATATGTACATATATATATATATAT [XGTACX_site6361] | 9.11 |
| TGACCTGTTCAGGTAACACACATATAAACCCATACA [CACACA_site31] | 9.54 |
| ATGCTATAGGATCTTACACACATTTTTGTAAAAAAA [CACACA_site1868] | 9.41 |
| AAAATCAAAAAAACAAGTACAAATGTGGACTTTTTT [XGTACX_site5363] | 9.27 |
| TGTTCTATGGTTTGTAGTACTTTAATAAATATAAAT [XGTACX_site7823] | 9.2 |
| AATAAGCTCACGTGTCGTACATTTTTTAAAACAACC [XGTACX_site4707] | 9.3 |
| TCAAAAAAAAAAAAAAAAAAAAAAAAAAAAAAAAAA [CACACA_negctrl_site1753] | 8.47 |
| TATATATATATATATGTGCACTGAAAGAATTATACA [GTGCAC_site9586] | 9.29 |
| GCTCAATTTTTGGGTACACACAAATGTATAAGAATA [CACACA_site7178] | 9.22 |
| TTTTTCTAATTATGCACACATATCAAAATATTCAAT [CACACA_site2749] | 9.25 |
| ATATATATAGAAATATGTACGAAAAAAATATCACAT [XGTACX_site746] | 9.35 |
| TATTTATTTTATATATGTACATAATATATTCTTATA [XGTACX_site1619] | 9.17 |
| GGAATAGTGATATATACACACAAATACATATTTATA [CACACA_site6183] | 9.59 |
| AATTAATAAGAAAGGTGTACAGAAAAAAAAAAATAT [XGTACX_site2106] | 9.68 |
| TTTAATAAAATTCTAGTGCAAAAAGGAAAAAACAAA [GTGCAC_site9642] | 9.39 |

| Sequence | gcPBM binding intensity (ln) |
| --- | --- |
| AATATATAGGAAAAAGTGCAATAAATGAACAAAATA | 9.71 |
| AAAAGAAATGACAAATTGGATAGATAATAGGGGGTA [GTGCAC_negctrl_site262] | 9.72 |
| AATTTTGATATATATTGTACGCATTTTTAAATGCCA [XGTACX_site7694] | 9.06 |
| TTATTTACTTATTGCACACATATAAAATATATTTAT [CACACA_site3101] | 9.44 |
| GAAGTTTTTTAAAGATGTACTTTTTAAAAATAATGT [XGTACX_site1975] | 8.91 |
| TTCTTAATTTAAAATTGTACTTAAGTAATACTTATG [XGTACX_site3928] | 8.97 |
| AAAAAAAAAAAAAATACACACATATATAAATAAATA [CACACA_site6459] | 9.68 |
| AAGAACTCATTAATAATGTAATATTTTATAATTTAG [CACACA_negctrl_site321] | 8.92 |
| ATAATAAAACTCAAAGTGCATTAGAATAATTGTAAA | 9.42 |
| ATTCATAAATATATTTGTACATATTATATATAAATA [XGTACX_site1907] | 9.09 |
| TAATATATAACGTGCACACACACATTTACGTATGAA [CACACA_site1832] | 9.79 |
| TATACATATTTCTATTGTACATAAACTAAATCTTCA [XGTACX_site28] | 8.87 |
| ACAATAAATATGTGGTTGCACTTATAATATATTTAT | 9.27 |
| GATATTATTGCATATTTACACACGTACTAATTTAAA [CACACA_site8231] | 9.72 |
| TACAATTGTAAAGGCGCACACATATATATATATATA [CACACA_site1392] | 9.56 |
| TTTTTATAATAAAAAAATATAACTATATTAAGCCAC [CACACA_negctrl_site555] | 9.11 |
| CACAGTGATATAAAAACACACATGAATTAAAATTTC [CACACA_site4999] | 9.33 |
| TATTTTTATCAATTCACACATAAATATATTTATATG [CACACA_site5547] | 9.19 |
| CATACATACAGACACACACACATATTTATATTTATA [CACACA_site6172] | 9.94 |
| TCCCTTAATTTTGTGTGTACATATAATATATTTTTA [XGTACX_site2789] | 9.63 |
